Experimental data published in the supplement of paper PMC4166925.
± gives the standard deviation of the averaged measurements. The full ranking holds about 33,000 sequences; the median of “E-score (dimensionless, -0.5 to 0.5)” is about -0.049, and the highest 2% start at about 0.37. Some of the results follow.

The sequences below were run on T1, PmTbr T-box DNA-binding domain (GST fusion) (assay: PBM E-score of 8-mer (E-score (dimensionless, -0.5 to 0.5)); Tbr is Tbrain of the sea star Patiria miniata (Pm) or the sea urchin Strongylocentrotus purpuratus (Sp); higher = stronger binding preference; most listed sequences are background and not binding sites). Settings: the construct has about 5 more residues each side.
T1 sequence: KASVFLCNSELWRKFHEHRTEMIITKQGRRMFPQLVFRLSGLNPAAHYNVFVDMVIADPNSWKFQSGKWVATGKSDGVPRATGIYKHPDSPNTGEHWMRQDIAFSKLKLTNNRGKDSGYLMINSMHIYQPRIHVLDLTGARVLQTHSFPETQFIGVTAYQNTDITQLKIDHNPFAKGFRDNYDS
Outline: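 Primer extension turned Universal Agilent oligonucleotide arrays double-stranded. They were incubated with 200 nM protein in PBS (pH 7.5); the protein was a GST-fused Tbr T-box DNA-binding domain expressed in BL21 E. coli at 20 °C and purified on glutathione. Every ungapped 8-mer was scored from the scanned, quantified probe intensities, and the Universal PBM Analysis Suite gave each an enrichment E-score averaged over duplicate arrays.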

Sequence	PBM E-score of 8-mer
AGCCTATA	-0.0286 ± 0.017
AGGGTCGG	-0.000775 ± 0.089
CGGGTATA	-0.00855 ± 0.0038
AGAGCACT	-0.194 ± 0.044
CCCTTGCG	-0.0476 ± 0.039
ATGCGTAA	-0.00762 ± 0.04
TATACCCA	-0.211 ± 0.064
CGCAAGTC	0.139 ± 0.039
AGTGTATC	-0.0481 ± 0.042
AGAGGCGG	-0.0446 ± 0.11
ATGACCGA	0.0114 ± 0.018
CTACCCGA	-0.172 ± 0.018
AAAAGTTC	-0.00649 ± 0.083
ATTTTCTA	-0.195 ± 0.053
GGTACCAA	-0.0257 ± 0.097
AAACTCTG	-0.0274 ± 0.017
CGGGCACC	0.0329 ± 0.042
CGTACTAG	-0.204 ± 0.011
GGACCTTA	-0.162 ± 0.056
CCCTAGGC	-0.0806 ± 0.029
TAGTGAAA	0.144 ± 0.048
CACTGTCC	-0.142 ± 0.032
GTACTTTA	-0.0494 ± 0.044
CCCAGCCG	-0.11 ± 0.068
AACTGATA	0.19 ± 0.042

Sequence	PBM E-score of 8-mer
CTGCAACC	-0.0498 ± 0.05
CATTTGAA	-0.259 ± 0.014
CTCTCCGC	-0.0355 ± 0.036
CGTGCTGC	0.0759 ± 0.13
AATAGATG	-0.0568 ± 0.06
GTTAGTTA	0.104 ± 0.082
GCCGAGCC	0.0237 ± 0.029
ACACTCGA	0.313 ± 0.025
AGGTAGAA	0.0299 ± 0.024
AAAAGGGC	0.0277 ± 0.022
CGAGTTGA	0.171 ± 0.026
GCACGGAA	0.0176 ± 0.024
GCGCATCA	-0.0961 ± 0.041
GGGACTAA	-0.236 ± 0.08
AAAGGTGC	0.422 ± 0.015
AGCTGCTC	-0.075 ± 0.024
CAGCTTAC	-0.0417 ± 0.036
AAGTCCAA	-0.257 ± 0.052
ATCGTACC	-0.248 ± 0.06
GGTAGGCA	-0.0316 ± 0.006
CACGCAAA	0.136 ± 0.029
AATTTCCA	-0.166 ± 0.039
TACAGGGA	-0.149 ± 0.018
AAGCGACC	-0.19 ± 0.025
CGTCGGAC	0.0591 ± 0.071

Sequence	PBM E-score of 8-mer
GGGGGCTA	-0.13 ± 0.017
AGAACTGG	-0.0956 ± 0.021
AACGACCA	0.121 ± 0.039
AATGGCAT	-0.0195 ± 0.013
AATACTGA	-0.0363 ± 0.029
GGAGGACA	-0.222 ± 0.065
ATGCTTCA	-0.068 ± 0.099
GGACCAGA	-0.258 ± 0.049
TAAGACCA	-0.116 ± 0.019
ACATACGG	0.0556 ± 0.024
GGTCTAAA	0.067 ± 0.011
CTCCACCA	-0.218 ± 0.015
ACTTTCTA	0.00172 ± 0.072
GAAACAAC	-0.0103 ± 0.033
CGAGCTGC	0.14 ± 0.019
AATGAGCG	-0.238 ± 0.03
CGATATCC	0.026 ± 0.019
ACGGCGTC	0.0764 ± 0.011
CGTATAAC	-0.0754 ± 0.027
AATTGGTG	0.18 ± 0.035
GCGTCCAC	-0.0543 ± 0.06
GCTTAAAA	-0.264 ± 0.096
CATTTCCA	-0.0843 ± 0.069
ATACTGCC	-0.212 ± 0.0077
CCACCTTA	0.246 ± 0.036

Sequence	PBM E-score of 8-mer
CAGTGTCC	-0.0875 ± 0.02
GTCAGGAA	0.196 ± 0.0025
ACGCTGAT	-0.0269 ± 0.014
AACCGGCT	-0.286 ± 0.073
GTAAAATA	-0.199 ± 0.081
ATAGCTTG	-0.0506 ± 0.038
CTCGCCCC	0.166 ± 0.032
ATAATAAG	0.00809 ± 0.057
TAGTAAGA	-0.139 ± 0.021
AGGCTAAC	-0.0755 ± 0.026
CGGCGGTC	-0.245 ± 0.078
CCTCACTC	0.179 ± 0.0022
CAACACCC	0.444 ± 0.015
GTGTTGTA	0.326 ± 0.011
CTCCAGAA	-0.192 ± 0.047
ACATCTAT	0.022 ± 0.055
AACAAGTC	0.191 ± 0.0086
CTCGGGGA	-0.232 ± 0.058
AAGACATA	-0.145 ± 0.047
GGACATAA	-0.0609 ± 0.025
AGCACCCC	0.253 ± 0.013
GTGAGTTA	0.202 ± 0.017
AGTGATGA	0.224 ± 0.015
CGCGGGAA	0.093 ± 0.075
CAACTGAA	-0.0664 ± 0.016

Sequence	PBM E-score of 8-mer
ATGGGGCA	-0.25 ± 0.054
GGAGATCA	-0.174 ± 0.09
ACCCAGGC	-0.0912 ± 0.049
CCGCCGAA	-0.122 ± 0.0029
CTCGCAAG	0.2452 ± 0.001
AGTATTAA	-0.0194 ± 0.0096
CACGGGAC	-0.104 ± 0.02
GCCCAAGC	-0.211 ± 0.037
AATGCGAC	0.153 ± 0.019
GGTCGCCA	0.122 ± 0.015
GCTTGGAC	-0.253 ± 0.029
AGTAGCGC	0.238 ± 0.017
GCAGCCGC	-0.0665 ± 0.11
CTAAATTA	-0.0739 ± 0.067
AAAACTTG	-0.0815 ± 0.039
CGGGCCAC	-0.0526 ± 0.024
CCATCCTA	-0.144 ± 0.041
ATTAACCC	-0.0386 ± 0.022
ACTAGTGA	0.204 ± 0.058
TAGAATCA	-0.00571 ± 0.02
CTCCCTTA	0.0309 ± 0.049
CCCATGTC	-0.15 ± 0.056
CCCAATGA	-0.199 ± 0.0049
AAGGTGCT	0.441 ± 0.0066
TCGAAAGA	-0.172 ± 0.05

Sequence	PBM E-score of 8-mer
GACTAGGC	0.0128 ± 0.064
CTAAGCAC	-0.147 ± 0.06
CTCCATCC	-0.115 ± 0.11
AACAACCA	-0.135 ± 0.035
GGTATGGA	-0.109 ± 0.026
CATCACGG	0.156 ± 0.018
ACGCGTAG	0.175 ± 0.045
GGATCTAC	-0.243 ± 0.018
ATACAAGA	-0.104 ± 0.013
AACTGACC	-0.216 ± 0.038
CGATGTAA	-0.0196 ± 0.022
GTACTGAC	-0.0242 ± 0.035
GCGATTCC	0.0122 ± 0.027
ACATACCT	0.09862 ± 0.00018
CTTACAAG	-0.113 ± 0.063
AAATTTGA	-0.221 ± 0.11
CCCCGTTA	-0.029 ± 0.04
AGGAGGTC	-0.247 ± 0.02
CAGCCCAG	-0.223 ± 0.039
AACGCTCT	-0.119 ± 0.048
AACTACGG	-0.2468 ± 0.0016
CGATCTTC	-0.0801 ± 0.0027
AGATGGTC	-0.258 ± 0.0079
CAGAGTCA	-0.282 ± 0.044
TATTCCCA	-0.15 ± 0.029

Sequence	PBM E-score of 8-mer
CGGATCCG	-0.0771 ± 0.048
GGCCCTAA	-0.2803 ± 0.00044
TATAGGGA	-0.249 ± 0.013
AGCCGTTA	0.161 ± 0.0036
GCGGGTCA	0.0142 ± 0.11
CGGGCAGC	-0.0554 ± 0.0018
CACCCGCG	0.3 ± 0.034
CTAGTCAG	0.0144 ± 0.011
GCCGCGGA	-0.144 ± 0.13
GAGACTAA	-0.0557 ± 0.043
CCTAAGGA	-0.147 ± 0.024
AGGCGACT	-0.208 ± 0.02
CCCTATGC	-0.0548 ± 0.048
ACTTCGGA	0.0402 ± 0.032
AGAAAGCG	0.0425 ± 0.071
ACTCCCCA	0.0161 ± 0.0096
CCGCCCCA	-0.155 ± 0.064
AGTGTCTA	0.213 ± 0.017
CGTAATCA	0.0187 ± 0.0013
ATGGGTAA	-0.0443 ± 0.093
GTGGCAAC	0.321 ± 0.006
CTTACTCC	-0.136 ± 0.052
